According to PubChem BioAssay AID1508624 (National Center for Advancing Translational Sciences (NCATS), 2021):
The whole screen tested about 48,000 compounds, of which about 120 (0.25%) were called active. Another 4% or so got no clear call; they are omitted. Calls come from the whole dose curve; as a rule, active = well fitted activation curve with a large enough effect; inconclusive = small, poorly fitted or top-dose-only effect, or another doubt; inactive = no such curve, though single readings can be large or run the other way. Some of the results follow.

Test: Primary qHTS for Identification of Small Molecule Activators of Huntingtin-Antisense Promoter Activity; note: nearly all actives have a fitted effect of over 55% in size
Conditions: HEK293 HTT-AS promoter firefly luciferase reporter, 24 h; series mostly up to 57.5 µM; activity change, positive = activation: at the top concentration
Procedure, shortened: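 Firefly luciferase readout (Dual-Glo, 10 min RT) after 24 h, 37 °C compound exposure (final up to 57.5 uM) of HEK293 reporter cells cultured 24 h beforehand; PTC124 at 50 uM final as control inhibitor; activity scaled vehicle 0%, zero RLU -100%.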

Activity change, positive = activation, inactive:
CN(C)c1ccc(NC(=O)Cn2nnc3sc4c(c3c2=O)CCC(C(C)(C)C)C4)cc1 (stereo not drawn) -3.34%
CN(C)c1cccc(C(=O)Nc2nc3ccc(S(=O)(=O)N4CCCC4)cc3s2)c1 -14.3%
O=C(Nc1ccc(O)c(-c2nc3ccccc3o2)c1)c1ccc(Br)cc1 -12.9%
CCSc1ncc(Cl)c(C(=O)Nc2nc3ccc(Cl)cc3s2)n1 -7.29%
CN(C)c1ccc(CNC(=O)CN2C(=O)CSc3ccc(S(=O)(=O)N4CCCC4)cc32)cc1 -14.9%
Cn1c(SCC(=O)Nc2nc3ccccc3s2)ncc(C(=O)Nc2ccccc2)c1=O 16.8%
CCc1nc(-c2cc(S(=O)(=O)N3CCN(c4ccccc4)CC3)ccc2OC)no1 -10.4%
COc1cccc(CNC(=O)CN2C(=O)N(c3ccc(C)cc3C)S(=O)(=O)c3ccccc32)c1OC -34.3%
CCc1nn(CC(=O)NCCCN(CC)CC)c(=O)c2cc3occc3n12 -1.66%
Cc1ccc2onc(CNC(=O)NCc3ccc(Cl)cc3)c2c1 -16.5%
COc1ccc(C)cc1-n1cnc2cc(C(=O)NC3CCCCCC3)ccc21 -22.7%
O=C1COc2cc(S(=O)(=O)CCC(=O)NC3CCCCC3)c(Cl)cc2N1 -18%
O=C(CSc1nccn1-c1cccc(Cl)c1)Nc1cccc2ccccc12 -6.42%
CCOc1ccc(CCNC(=O)CCCc2nnc3n(CC)c(=O)c4sccc4n23)cc1 -12%
CCSc1ncc(Cl)c(C(=O)Nc2c(C(=O)Nc3ccccc3)oc3ccccc23)n1 -0.706%
COc1cccc(C(=O)Nc2cccc(-c3nc4ncccn4c3C)c2)c1 5.58%
O=C(O)c1c(-c2ccccc2)oc2ccc(OCc3c(F)cccc3Cl)cc12 -33.1%
CNC(=O)[C@H](Cc1ccccc1)NC(=O)[C@H](CC(C)C)[C@H](CSc1cccs1)C(=O)NO -4.86%
Cn1c(=O)c2c(-c3ccc(Br)cc3)n(Cc3ccc(F)cc3)cc2n(C)c1=O -29.7%
COc1ccc(-c2nc3cc(C)ccn3c2NC(=O)c2cccc(F)c2)cc1 5.04%
Cc1cc2c(cc3c(SCc4ccc(Cl)cc4)nncn32)o1 -4.79%
COc1ccc(C)cc1NC(=O)c1cnc2ccc(C)cn2c1=O 8.66%
O=c1c2ccccc2n(Cc2c(F)cccc2Cl)c(=O)n1CCc1ccccc1 -7.51%
COCCNC(=O)CCCn1c(SCC(=O)c2ccc(Br)cc2)nc2c(sc3ccccc32)c1=O -3.17%
Cc1ccn2c(=O)cc(COc3ccc(NC(=O)COc4ccc(C)c(C)c4)cc3)nc2c1 -5%
Cc1ccc(OCC(=O)NCC(c2ccc(Cl)cc2)N2CCOCC2)cc1C (stereo not drawn) -18.6%
CCOc1cc(C2c3c(oc4ccccc4c3=O)C(=O)N2Cc2ccc(OC)cc2)ccc1O (stereo not drawn) -4%
O=C(CCCCn1c(=O)c2ccccc2n(Cc2cccc(F)c2)c1=O)NCc1ccc2c(c1)OCO2 -35.6%
Cc1cccc(Nc2c(-c3ccsc3)nc3nc(C)cc(C)n23)c1 -5.45%
Cc1ccc(C(=O)c2oc3ccccc3c2NC(=O)Cc2coc3ccc(C)cc23)cc1 -6.26%
CCOC(=O)c1c(C)[nH]c(C)c1S(=O)(=O)N(C)CC(=O)NCc1ccc(Cl)cc1 0.587%
COc1ccc(-n2cnc3cc(C(=O)NC4CCCCCC4)ccc32)cc1 -22.6%
O=C(O)c1ccc2nc(-c3cc4cc(Cl)ccc4oc3=O)[nH]c2c1 2.83%
Cc1ccc(-c2nc3c4ccccc4n(CC(=O)NCc4ccc(F)cc4)c(=O)n3n2)cc1 27.1%
O=C(CSc1nc(-c2ccccc2F)nc2cc(=O)[nH]n12)Nc1cccc(C(F)(F)F)c1 -23.6%
CCOc1ccccc1-c1nc(Cn2c(=O)cc(C)c3c(C)nn(-c4ccccc4)c32)c(C)o1 -7.4%
COC(=O)c1sc(-c2ccccc2)cc1NC(=O)Nc1ccc(F)cc1 -13.4%
COc1ccc(C(CC(=O)NCc2ccc(Cl)cc2)N2Cc3ccccc3C2=O)cc1OC (stereo not drawn) -22.7%
Cc1ccc(OCC(=O)Nc2ccc(S(=O)(=O)Nc3cc(C)on3)cc2)c(Br)c1 -18%
COc1ccc(CCNC(=O)C2CCN(Cc3nc(-c4ccc(OC)c(OC)c4)oc3C)CC2)cc1OC -3.54%
O=C(NCCn1cc(SCc2ccc(Br)cc2)c2ccccc21)c1cccs1 -35.2%
CCC1Oc2ccccc2N(CC(=O)NCc2cc(OC)ccc2OC)C1=O (stereo not drawn) -5.24%
CCCC(=O)N1CCc2cc(OC)c(OC)cc2C1COc1ccc(C(=O)OC)cc1 (stereo not drawn) -26.5%
CCN(CC)C(=O)Cn1c(=O)n(CC2CCC(C(=O)NC)CC2)c(=O)c2sccc21 (stereo not drawn) -6.09%
CCOc1ccc(CCNc2nc3c(-c4ccc(C)cc4)nnn3c3ccccc23)cc1OCC 0.902%
Cc1ccc(-c2ccc(=O)n(CC(=O)Nc3ccc(F)c(Cl)c3)n2)cc1C -6.84%
COc1cccc(NC(=O)CSC2=Nc3ccccc3C3=NC(CCC(=O)NCc4ccco4)C(=O)N23)c1 (stereo not drawn) -13.1%
CCOc1ccccc1C(=O)Nc1ccc(S(=O)(=O)N2CCCCC2c2cccnc2)cc1 (stereo not drawn) -28.2%
COc1ccccc1C(=O)Nc1nnc(S(=O)(=O)N2CCCCCC2)s1 -20.7%
COc1ccc(-c2nc(CNS(=O)(=O)c3ccc(C)cc3)cs2)cc1 -34.7%
O=C(NCc1ccccc1Cl)c1ccc(NC(=O)N2CCCCc3ccccc32)cc1 -21.6%
CCOc1ccc(NC(=O)CSC2=Nc3ccccc3C3=NC(CC(=O)NCc4ccc5c(c4)OCO5)C(=O)N23)cc1 (stereo not drawn) -0.0447%
Cc1ccc(S(=O)(=O)c2c(Nc3cccc(Cl)c3)sc(C(=O)c3ccc4c(c3)OCO4)c2N)cc1 -11.7%
COc1ccc(-c2nc3ccccc3n2Cc2ccc(Cl)cc2)cc1 -15.7%
O=C(OCc1cc(=O)n2c3c(sc2n1)CCCC3)c1cccc(NC(=O)c2ccccc2F)c1 -31.3%
COc1cc(C)ccc1OCCSc1nnc(-c2ccc(C)cc2)o1 -9.63%
Cc1ccc(C(=O)c2oc3ccccc3c2NC(=O)Cc2coc3c(C)c(C)ccc23)cc1 -3.57%
Cc1cccc(NC(=O)CN(C)S(=O)(=O)c2ccc3c(c2)c(=O)n(C)c(=O)n3C)c1 -17%
O=C(NCCS(=O)(=O)N1CCN(c2ccccc2)CC1)C1CC(=O)N(c2ccccc2)C1 (stereo not drawn) 2.98%
CC1CCCCN1CC(=O)N1CCCc2c1c(=O)oc1ccc(OCc3ccccc3)cc21 (stereo not drawn) -33.8%
Cc1cc(Br)ccc1NC(=O)C1(S(=O)(=O)c2ccc(Cl)cc2)CC1 -14.2%
COc1ccc(OC)c(-c2noc(CSc3nnc(Cc4ccccc4)n3-c3cccc(C)c3)n2)c1 -21.8%
Cn1cc(S(=O)(=O)c2ccccc2)c(=O)c2cc(F)c(N3CCCCC3)cc21 -6.05%
Cc1noc2nc(C(=O)O)nc(N3CCCCC3)c12 -3.55%
COc1cccc(N2CC(NC(=O)COc3ccc4ccccc4c3)CC2=O)c1 (stereo not drawn) -3.27%
CCc1nnc(SCC(=O)Nc2cc(Cl)c(OC)cc2OC)c2cc3oc(C)cc3n12 -4.92%
CC(=O)c1ccc(NC(=O)CCn2nc(C)c(S(=O)(=O)N3CCC(C)CC3)c2C)cc1 -19.1%
CC1CCC(NC(=O)Cn2ncc3c4ccccc4n(Cc4ccc(Cl)cc4)c3c2=O)CC1 (stereo not drawn) -8.98%
CCCCN(CC)C(=O)Nc1ccc2c(c1)N(C)C(=O)c1ccccc1S2 -27.3%
COC(=O)c1c(C)sc(-c2c(-c3cccc(OC)c3)[nH]c3c2c(=O)[nH]c(=O)n3C)c1O -9.48%
CC(=O)Nc1ccc(S(=O)(=O)NC2(C(F)(F)F)NC(=O)N(c3ccc(Cl)cc3)C2=O)cc1 (stereo not drawn) -5.15% [at 11.5 µM, percent change from vehicle, -100% = no light]
COc1ccc(C(=O)N2CCc3cc(OC)c(OC)cc3C2COc2ccccc2OC)cc1 (stereo not drawn) -16.6%
COc1ccc(C)c2sc(N(Cc3cccnc3)C(=O)CCc3ccccc3)nc12 -24.4%
CCCn1c(=O)c2sccc2n2c(CCCC(=O)Nc3ccc(C)c(F)c3)nnc12 -7.4%
O=C(Nc1ccc(Cl)c(Cl)c1)C1CC1 -5.45%
Cc1ccc(C(=O)COC(=O)c2cc(-c3ccc(Cl)cc3)nc3ccccc23)cc1 -11.2%
COc1ccc(-c2noc(CN3CCN(c4ccccc4OC)CC3)n2)cc1OC -23.9%
COc1ccc(CNc2ncnc3c2nnn3C)cc1 3.3%
COc1ccc(CN2C(=O)C(NC(=O)c3ccccc3C)(C(F)(F)F)N=C2c2ccccc2)cc1 (stereo not drawn) -27.7%
Cc1nn(CC(=O)NCc2ccc(OC(C)C)cc2)c(=O)c2c(C)n(-c3ccc(Cl)cc3)nc12 -34.3%
Cc1cccc(NC(=O)Cn2cc(C(=O)c3ccco3)c3ccccc32)c1C -36.3%
CCc1ccccc1NC(=O)Cn1nnc(C(=O)Nc2ccc(C)c(F)c2)c1N 1.26%
CSc1ccc(CCNC(=O)Cn2ncc3c(=O)oc4ccc(C)cc4c32)cc1 -6.84%
CCCCCOc1ccc(C2c3c(oc4ccccc4c3=O)C(=O)N2c2nc(C)c(C)s2)cc1OCC (stereo not drawn) -0.213% [at 11.5 µM, percent change from vehicle, -100% = no light]
COc1ccccc1CCNc1ncnc2c1nnn2C 5.84%
Cc1ccc(-n2c(=O)c3ccc(C(=O)NCc4ccco4)cc3n(Cc3cccc(Cl)c3)c2=O)cc1 10.1%
CC(C)c1cnc2c(c1SCc1cccc(C(F)(F)F)c1)c(=O)n(C)c(=O)n2C -9.37%
Cc1cccc(-n2c3nc(=O)n(C)c(=O)c-3cc3c(Cl)cccc32)c1C -4.55%
CC(C)CCNC(=O)CSCc1cnn(-c2ccccc2)c1-n1cccc1 -30.1%
CCc1nc(SCC(=O)Nc2ccc(NC(C)=O)cc2)n[nH]1 -19.6%
COC(=O)c1ccccc1NC(=O)Cc1noc2ccc(C)cc12 -11.1%
COc1ccc(Br)cc1CNC(=O)CN1CCSc2ccccc21 -38.7%
COc1ccc(NC(=O)Cn2c(=O)n(Cc3nc(-c4ccccc4)no3)c(=O)c3cc4c(cc32)OCO4)cc1Cl -10.9%
